Experimental data: PubChem BioAssay AID2675 (National Center for Advancing Translational Sciences (NCATS), 2010)
The campaign covered roughly 280,000 compounds. About 100 (0.036%) were called active. Inconclusive results, whose numbers are uncertain, are shown with a selection of clear calls. The call rests on the fitted dose curve; in most records, active means well fitted inhibition curve with a large enough effect in the signal ratio, with a control signal flat (not every such curve was filed as active); inconclusive means small, poorly fitted or top-dose-only effect, or effect the other way, or a change in a side signal; inactive means no such curve, though single readings can be large or run the other way; the % refers to the signal ratio. Where the call is inconclusive, the potency comes from a doubtful curve fit. “Side channel” marks fits to a control or component signal instead of the main read-out.

Each molecule was assayed against Muscleblind-like protein 1 (Homo sapiens) (UniProt Q9NR56) (assay: qHTS Assay for Inhibitors of MBNL1-poly(CUG) RNA binding). Details: TR-FRET MBNL1-His/biotin-(CUG)12 binding, 665/545 ratio; series mostly up to 57.5 µM.
How it was run: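 Ratiometric TR-FRET (665 over 545 nm, excitation 340 nm) tracks disruption of MBNL1-His/biotin-(CUG)12 complex after 60 min at room temperature, with compounds at 92 nM to 58 uM final.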
Potency means the concentration at half of the fitted maximal effect; tags describe the fitted curve by direction and shape or compound fluorescence and quenching.

Sequence of UniProt Q9NR56 (Q9NR56 whole entry, looked up): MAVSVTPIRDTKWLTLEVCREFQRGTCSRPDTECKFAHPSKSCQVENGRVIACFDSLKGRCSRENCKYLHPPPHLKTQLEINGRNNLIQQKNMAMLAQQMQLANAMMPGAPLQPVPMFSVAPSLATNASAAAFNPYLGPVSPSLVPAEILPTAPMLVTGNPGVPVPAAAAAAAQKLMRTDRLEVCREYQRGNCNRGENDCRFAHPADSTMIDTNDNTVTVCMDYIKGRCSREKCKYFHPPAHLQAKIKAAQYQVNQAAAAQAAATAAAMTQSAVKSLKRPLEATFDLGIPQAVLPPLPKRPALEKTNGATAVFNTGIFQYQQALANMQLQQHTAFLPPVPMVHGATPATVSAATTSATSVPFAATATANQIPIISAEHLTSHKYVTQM

SMILES	Potency
O=C(Cc1ccccc1[N+](=O)[O-])N1CCN(c2ccccc2F)CC1	inconclusive: 8.91 µM [quencher, side channel, partial curve]
CC(C)(C)C(=O)NCCN1C(=O)S/C(=C\c2ccc([N+](=O)[O-])cc2)C1=O	inconclusive: 14.1 µM [quencher, side channel, partial curve]
Cc1ncc2c(c1OC(=O)c1ccc([N+](=O)[O-])cc1)COC(C)(C)OC2	inconclusive: 7.94 µM [quencher, partial curve]
COc1ccc(C(=O)NCCNc2ccccc2[N+](=O)[O-])cc1	inconclusive: 15.8 µM [quencher, partial curve]
O=Cc1c(Cl)nc2ccccn2c1=O	inconclusive: 25.1 µM [quencher, side channel, partial curve]
CCOC(=O)COn1c(=O)c(-c2ccc(OCC)cc2)[n+]([O-])c2ccccc21	inconclusive: 6.31 µM [quencher, side channel, partial curve]
Cc1ccc(C(=O)/C=C/Nc2ccccc2C(N)=O)o1	inconclusive: 10 µM [quencher, side channel, partial curve]
O=C(Nc1ncn[nH]1)c1cc([N+](=O)[O-])ccc1Cl	inconclusive: 15.8 µM [quencher, partial curve]
CN1/C(=C\C(=O)C[n+]2ccc3ccccc3c2)C(C)(C)c2ccccc21	inconclusive: 28.2 µM [quencher, side channel, single point]
C=CCn1c(=O)c2ccccc2n2c(Sc3nnnn3-c3ccccc3)nnc12	inactive
Cc1ccc2cc(C(c3nnnn3C3CCCC3)N3CCN(c4ccc(F)cc4)CC3)c(=O)[nH]c2c1 (centres undefined)	inconclusive: 35.5 µM [quencher, side channel, single point]
O=C(c1ccco1)N1CCN(C(=O)C2CCCN(S(=O)(=O)c3cccc4nsnc34)C2)CC1 (centres undefined)	inconclusive: 14.1 µM [quencher, side channel, partial curve]
CC1=NN(c2ccccc2)C(=O)/C1=C/C=C/c1ccccc1	inactive
CCCCN(CC)Cc1ccc(CNC(=S)Nc2ccc(C)cc2Cl)o1	inconclusive: 7.08 µM [fluorescent, side channel, single point]
O=C(CCCl)Nc1cc(SCCO)cc([N+](=O)[O-])c1	inconclusive: 25.1 µM [quencher, side channel, partial curve]
COc1cccc(C2CC(c3ccc(Cl)cc3)Nc3nc(N)nn32)c1 (centres undefined)	inconclusive: 0.708 µM [quencher, side channel, full curve, poor fit]
COc1ccc([N+](=O)[O-])cc1NC(=O)c1ccc(C)o1	inconclusive: 12.6 µM [quencher, side channel, partial curve]

SMILES	Potency
CO[C@H]1C=CO[C@@]2(C)Oc3c(C)c(O)c4c(O)c(c(C=NN5CCN(C)CC5)c(O)c4c3C2=O)NC(=O)C(C)=CC=C[C@H](C)[C@H](O)[C@@H](C)[C@@H](O)[C@@H](C)[C@H](OC(C)=O)[C@@H]1C	inconclusive: 14.1 µM [quencher, side channel, partial curve]
CC(C(=O)Nc1ccc([N+](=O)[O-])cc1)N1CCN(C/C=C/c2ccccc2)CC1 (centres undefined)	inconclusive: 22.4 µM [quencher, side channel, partial curve]
CC(=O)Nc1ccc(NC(=O)CN(c2ccc([N+](=O)[O-])cc2)S(=O)(=O)c2ccccc2)cc1	inconclusive: 15.8 µM [quencher, side channel, partial curve]
COC(=O)c1c(NC(=O)COc2ccc(Cl)cc2Cl)sc2c1CC(C)(C)NC2(C)C	inconclusive: 0.794 µM [fluorescent, side channel, single point]
CC(NCc1ccc(S(N)(=O)=O)cc1)C(=O)Nc1ccc([N+](=O)[O-])cc1Cl (centres undefined)	inconclusive: 31.6 µM [quencher, side channel, single point]
O=C(CCCN1C(=O)/C(=C\c2cccs2)SC1=S)Nc1ccc(O)cc1C(=O)O	inconclusive: 28.2 µM [quencher, partial curve]
N/C(=N\NC(=O)c1ccccc1Cl)c1cc2ccccc2oc1=O	inconclusive: 10 µM [quencher, side channel, full curve, poor fit]
Cc1ccc2nsnc2c1NC(=O)CCc1ccccc1	inconclusive: 3.16 µM [quencher, side channel, partial curve]
COc1cc(/C=C2/SC(=S)N(Cc3ccccc3)C2=O)cc(OC)c1O	inconclusive: 20 µM [quencher, side channel, partial curve]
COc1ccc(-c2nn(-c3ccccc3)cc2/C=C/C(=O)NCCCn2ccnc2)cc1OC	inconclusive: 17.8 µM [quencher, partial curve]
Cc1ccc2nc3ccc(N4CCN(C)CC4)nn3c(=O)c2c1	inconclusive: 7.94 µM [quencher, side channel, partial curve]
Cc1cccn2c(=O)c(/C=C(\C#N)C(=O)NC3CCS(=O)(=O)C3)c(Oc3ccccc3Cl)nc12 (centres undefined)	inconclusive: 8.91 µM [quencher, side channel, partial curve]
Cc1nnc(NC(=O)CSc2nnc(C)n2Cc2ccccc2)s1	inconclusive: 79.4 µM [inhibitor, single point]
O=C(Nc1nnc(C(F)(F)F)s1)c1cccnc1	inconclusive: 100 µM [inhibitor, partial curve, poor fit]
O=C1c2ccccc2C(=O)N1CSc1nnnn1-c1ccccc1	inconclusive: 28.2 µM [quencher, side channel, partial curve]
COC(=O)c1nn(-c2ccc(OC)cc2)c(=O)cc1NN	inconclusive: 39.8 µM [quencher, single point]
O=C(CCc1ccc(O)c(O)c1)N/N=C/c1cc2c(cc1[N+](=O)[O-])OCO2	inconclusive: 39.8 µM [quencher, side channel, single point]
